The supplement of paper PMC4604168 (melanoma cell lines)
The list shows a part of the results. Repeats are few or missing, and single values can be far off.

Test system: WM1745
Test: cell count relative to DMSO control; melanoma cells; higher = more viable cells
Conditions: library dose: low library concentration; 72 h
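Further: cell number obtained by counting DAPI-stained nuclei in high-throughput microscope images with image analysis software, screen run in 1,536-well plates.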

For CC(=O)O[C@@]12CO[C@@H]1C[C@H](O)[C@@]1(C)C(=O)[C@H](O)C3=C(C)[C@@H](OC(=O)[C@H](O)[C@@H](NC(=O)OC(C)(C)C)c4ccccc4)C[C@@](O)([C@@H](OC(=O)c4ccccc4)[C@H]21)C3(C)C [Docetaxel] + Nc1cccc2c1CN(C1CCC(=O)NC1=O)C2=O [lenalidomide] (first compound 0.0001 µM, partner dose 1 µM), which cell count is on record?
The cell count was 53.5%.

Which cell count does the source give for CC(=O)O[C@@]12CO[C@@H]1C[C@H](O)[C@@]1(C)C(=O)[C@H](O)C3=C(C)[C@@H](OC(=O)[C@H](O)[C@@H](NC(=O)OC(C)(C)C)c4ccccc4)C[C@@](O)([C@@H](OC(=O)c4ccccc4)[C@H]21)C3(C)C [Docetaxel] + O=C(O)c1ccc(-c2c[nH]c3ncc(-c4ccccc4)cc23)cc1C1CCCC1 [GSK650394] (first compound 0.0001 µM, partner dose 0.16 µM) here?
The cell count was 54%.

How did the cell count turn out when Nc1nc(F)nc2c1ncn2[C@@H]1O[C@H](CO)[C@@H](O)[C@@H]1O [fludarabine] + CC1(C)NC(=O)N(c2ccc([N+](=O)[O-])c(C(F)(F)F)c2)C1=O [nilutamide] (first compound 0.2 µM, partner dose 1 µM) was run?
Its cell count is 90.5%.

Nc1nc(F)nc2c1ncn2[C@@H]1O[C@H](CO)[C@@H](O)[C@@H]1O [fludarabine] + c1cc(-c2cnn3cc(-c4ccc(OCCN5CCCCC5)cc4)cnc23)ccn1 [Dorsomorphin] (first compound 0.2 µM, partner dose 0.4 µM) was tested. Which cell count did it give?
Its cell count is 98.7%.

With Nc1nc(F)nc2c1ncn2[C@@H]1O[C@H](CO)[C@@H](O)[C@@H]1O [fludarabine] + CCN(CC)CCCCNc1ncc2cc(-c3cc(OC)cc(OC)c3)c(NC(=O)NC(C)(C)C)nc2n1 [PD173074] (first compound 0.2 µM, partner dose 0.1 µM) as the compound, how does the cell count read?
Its cell count is 106%.

With Nc1nc(F)nc2c1ncn2[C@@H]1O[C@H](CO)[C@@H](O)[C@@H]1O [fludarabine] + C=CCNC1=C2C[C@@H](C)C[C@H](OC)[C@H](O)[C@@H](C)/C=C(\C)[C@H](OC(N)=O)[C@@H](OC)/C=C\C=C(/C)C(=O)NC(=CC1=O)C2=O [Tanespimycin] (first compound 0.2 µM, partner dose 0.002 µM) as the compound, how does the cell count read?
Its cell count is 89.5%.

Nc1nc(F)nc2c1ncn2[C@@H]1O[C@H](CO)[C@@H](O)[C@@H]1O [fludarabine] + C=CCn1c(=O)c2cnc(Nc3ccc(N4CCN(C)CC4)cc3)nc2n1-c1cccc(C(C)(C)O)n1 [MK1775] (first compound 0.2 µM, partner dose 0.02 µM) was tested. Which cell count did it give?
Its cell count is 86.1%.

With CC(=O)c1c(C)c2cnc(Nc3ccc(N4CCNCC4)cn3)nc2n(C2CCCC2)c1=O [palbociclib] + CN(C)S(=O)(=O)c1ccc2c(c1)/C(=C/c1cc3c([nH]1)CCCC3)C(=O)N2 [SU6656] (first compound 0.04 µM, partner dose 0.4 µM) as the compound, how does the cell count read?
Its cell count is 80.9%.

Which cell count does the source give for CC(=O)c1c(C)c2cnc(Nc3ccc(N4CCNCC4)cn3)nc2n(C2CCCC2)c1=O [palbociclib] + Cn1cncc1[C@@](N)(c1ccc(Cl)cc1)c1ccc2c(c1)c(-c1cccc(Cl)c1)cc(=O)n2C [tipifarnib] (first compound 0.04 µM, partner dose 0.01 µM) here?
Its cell count is 81%.

With Nc1ccn([C@@H]2O[C@H](CO)[C@@H](O)C2(F)F)c(=O)n1 [gemcitabine] + Nc1cccc2c1CN(C1CCC(=O)NC1=O)C2=O [lenalidomide] (first compound 0.0004 µM, partner dose 1 µM) as the compound, how does the cell count read?
Its cell count is 69.4%.

For Nc1nc(F)nc2c1ncn2[C@@H]1O[C@H](CO)[C@@H](O)[C@@H]1O [fludarabine] + Clc1ccc(Nc2nnc(Cc3ccncc3)c3ccccc23)cc1 [vatalanib] (first compound 0.2 µM, partner dose 2 µM), which cell count is on record?
Its cell count is 92.7%.

Which cell count does the source give for Nc1nc(F)nc2c1ncn2[C@@H]1O[C@H](CO)[C@@H](O)[C@@H]1O [fludarabine] + C#Cc1cccc(Nc2ncnc3cc(OCCOC)c(OCCOC)cc23)c1 [erlotinib] (first compound 0.2 µM, partner dose 0.8 µM) here?
Its cell count is 90.9%.

For Nc1nc(F)nc2c1ncn2[C@@H]1O[C@H](CO)[C@@H](O)[C@@H]1O [fludarabine] + O=C(O)C(=O)Nc1sc2c(c1C(=O)O)CCNC2 [TCS401] (first compound 0.2 µM, partner dose 1.66667 µM), which cell count is on record?
Its cell count is 93.5%.

How did the cell count turn out when CC(=O)O[C@@]12CO[C@@H]1C[C@H](O)[C@@]1(C)C(=O)[C@H](O)C3=C(C)[C@@H](OC(=O)[C@H](O)[C@@H](NC(=O)OC(C)(C)C)c4ccccc4)C[C@@](O)([C@@H](OC(=O)c4ccccc4)[C@H]21)C3(C)C [Docetaxel] + O=c1cc(-c2cccc3c2Sc2ccccc2S3)oc(N2CCOCC2)c1 [KU55933] (first compound 0.0001 µM, partner dose 1 µM) was run?
The cell count was 52.6%.

Which cell count does the source give for Nc1ccn([C@@H]2O[C@H](CO)[C@@H](O)C2(F)F)c(=O)n1 [gemcitabine] + Cc1cc([N+](=O)[O-])ccc1NS(=O)(=O)c1cc(Cl)ccc1Cl [FH535] (first compound 0.0004 µM, partner dose 1 µM) here?
The cell count was 66%.

For CC(=O)c1c(C)c2cnc(Nc3ccc(N4CCNCC4)cn3)nc2n(C2CCCC2)c1=O [palbociclib] + O=C(O)c1ccc(-c2c[nH]c3ncc(-c4ccccc4)cc23)cc1C1CCCC1 [GSK650394] (first compound 0.04 µM, partner dose 0.16 µM), which cell count is on record?
The cell count was 77.7%.

How did the cell count turn out when CO[C@H]1C[C@@H]2CC[C@@H](C)[C@@](O)(O2)C(=O)C(=O)N2CCCC[C@H]2C(=O)O[C@H]([C@H](C)C[C@@H]2CC[C@@H](OCCO)[C@H](OC)C2)CC(=O)[C@H](C)/C=C(\C)[C@@H](O)[C@@H](OC)C(=O)[C@H](C)C[C@H](C)/C=C/C=C/C=C/1C [everolimus] + CCCCCCCCCCCC1=C(O)C(=O)C=C(O)C1=O [Embelin] (first compound 0.02 µM, partner dose 1.2 µM) was run?
The cell count was 88.1%.

For Nc1ncn([C@H]2C[C@H](O)[C@@H](CO)O2)c(=O)n1 [decitabine] + CC(C)(C)c1cnc(CSc2cnc(NC(=O)C3CCNCC3)s2)o1 [SNS-032] (first compound 0.1 µM, partner dose 0.01 µM), which cell count is on record?
Its cell count is 104%.

How did the cell count turn out when CO[C@H]1C[C@@H]2CC[C@@H](C)[C@@](O)(O2)C(=O)C(=O)N2CCCC[C@H]2C(=O)O[C@H]([C@H](C)C[C@@H]2CC[C@@H](OCCO)[C@H](OC)C2)CC(=O)[C@H](C)/C=C(\C)[C@@H](O)[C@@H](OC)C(=O)[C@H](C)C[C@H](C)/C=C/C=C/C=C/1C [everolimus] + Cn1nnc2c(C(N)=O)ncn2c1=O [temozolomide] (first compound 0.02 µM, partner dose 2 µM) was run?
The cell count was 70.1%.

With CO[C@H]1C[C@@H]2CC[C@@H](C)[C@@](O)(O2)C(=O)C(=O)N2CCCC[C@H]2C(=O)O[C@H]([C@H](C)C[C@@H]2CC[C@@H](OCCO)[C@H](OC)C2)CC(=O)[C@H](C)/C=C(\C)[C@@H](O)[C@@H](OC)C(=O)[C@H](C)C[C@H](C)/C=C/C=C/C=C/1C [everolimus] + Cn1cncc1[C@@](N)(c1ccc(Cl)cc1)c1ccc2c(c1)c(-c1cccc(Cl)c1)cc(=O)n2C [tipifarnib] (first compound 0.02 µM, partner dose 0.01 µM) as the compound, how does the cell count read?
The cell count was 87.3%.

For Nc1nc(F)nc2c1ncn2[C@@H]1O[C@H](CO)[C@@H](O)[C@@H]1O [fludarabine] + COCC[n+]1c2c(n(Cc3cnccn3)c1C)C(=O)c1ccccc1C2=O [YM155] (first compound 0.2 µM, partner dose 0.0004 µM), which cell count is on record?
Its cell count is 75.9%.

With CO[C@H]1C[C@@H]2CC[C@@H](C)[C@@](O)(O2)C(=O)C(=O)N2CCCC[C@H]2C(=O)O[C@H]([C@H](C)C[C@@H]2CC[C@@H](OCCO)[C@H](OC)C2)CC(=O)[C@H](C)/C=C(\C)[C@@H](O)[C@@H](OC)C(=O)[C@H](C)C[C@H](C)/C=C/C=C/C=C/1C [everolimus] + c1cc(-c2cnn3cc(-c4ccc(OCCN5CCCCC5)cc4)cnc23)ccn1 [Dorsomorphin] (first compound 0.02 µM, partner dose 0.4 µM) as the compound, how does the cell count read?
The cell count was 90.5%.

How did the cell count turn out when CC(=O)c1c(C)c2cnc(Nc3ccc(N4CCNCC4)cn3)nc2n(C2CCCC2)c1=O [palbociclib] + Cn1c(Nc2ccc(C(F)(F)F)cc2)nc2cc(Oc3ccnc(-c4ncc(C(F)(F)F)[nH]4)c3)ccc21 [CHIR265] (first compound 0.04 µM, partner dose 0.08 µM) was run?
The cell count was 58.7%.

With CC(=O)O[C@@]12CO[C@@H]1C[C@H](O)[C@@]1(C)C(=O)[C@H](O)C3=C(C)[C@@H](OC(=O)[C@H](O)[C@@H](NC(=O)OC(C)(C)C)c4ccccc4)C[C@@](O)([C@@H](OC(=O)c4ccccc4)[C@H]21)C3(C)C [Docetaxel] + NCC(=O)Nc1ccc(-n2nc(C(F)(F)F)cc2-c2ccc3c(ccc4ccccc43)c2)cc1 [OSU03012] (first compound 0.0001 µM, partner dose 1 µM) as the compound, how does the cell count read?
The cell count was 60.2%.

For CC(=O)O[C@@]12CO[C@@H]1C[C@H](O)[C@@]1(C)C(=O)[C@H](O)C3=C(C)[C@@H](OC(=O)[C@H](O)[C@@H](NC(=O)OC(C)(C)C)c4ccccc4)C[C@@](O)([C@@H](OC(=O)c4ccccc4)[C@H]21)C3(C)C [Docetaxel] + CC(=O)c1c(C)c2cnc(Nc3ccc(N4CCNCC4)cn3)nc2n(C2CCCC2)c1=O [palbociclib] (first compound 0.0001 µM, partner dose 0.04 µM), which cell count is on record?
The cell count was 47.4%.
